# Changes are numbered by the printed parent chain; changes in the protein carry UniProt numbers. The list shows a part of the results.
# T1: RBFOX1 RRM (Homo sapiens, UniProt Q9NWB1 109-208)
# T1 sequence: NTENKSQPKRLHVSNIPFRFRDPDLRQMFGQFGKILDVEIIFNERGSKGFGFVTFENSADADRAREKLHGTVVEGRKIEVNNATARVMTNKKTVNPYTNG
# B1: CGUGGUU (DNA:RNA)
# RNA: GGGAGACCGGAAUUCAGAUUGUCCCGUGGUUUUAAAUCCCGUCGUAGCCACCA
# DNA 1: CAATCTGAATTCCGGTCTCCC
# DNA 2: TGGTGGCTACGACGGGATT
# B2: CCCGCGU (DNA:RNA)
# RNA: B1 RNA with G26C, U27C, G29C, U30G
# DNA 1: CAATCTGAATTCCGGTCTCCC
# DNA 2: TGGTGGCTACGACGGGATT
# B3: GCCGUGG (DNA:RNA)
# RNA: B1 RNA with C25G, G26C, U27C, G29U, U30G, U31G
# DNA 1: CAATCTGAATTCCGGTCTCCC
# DNA 2: TGGTGGCTACGACGGGATT
# B4: UGUUAAG (DNA:RNA)
# RNA: B1 RNA with C25U, G28U, G29A, U30A, U31G
# DNA 1: CAATCTGAATTCCGGTCTCCC
# DNA 2: TGGTGGCTACGACGGGATT
# B5: AGACUGG (DNA:RNA)
# RNA: B1 RNA with C25A, U27A, G28C, G29U, U30G, U31G
# DNA 1: CAATCTGAATTCCGGTCTCCC
# DNA 2: TGGTGGCTACGACGGGATT
# B6: GACACGA (DNA:RNA)
# RNA: GGGAGACCGGAAUUCAGAUUGUCCGACACGAUUAAAUCCCGUCGUAGCCACCA
# DNA 1: CAATCTGAATTCCGGTCTCCC
# DNA 2: TGGTGGCTACGACGGGATT
# B7: UACCUGC (DNA:RNA)
# RNA: B6 RNA with G25U, A28C, C29U, A31C
# DNA 1: CAATCTGAATTCCGGTCTCCC
# DNA 2: TGGTGGCTACGACGGGATT
# B8: CCUUAUG (DNA:RNA)
# RNA: B1 RNA with G26C, G28U, G29A, U31G
# DNA 1: CAATCTGAATTCCGGTCTCCC
# DNA 2: TGGTGGCTACGACGGGATT
# B9: CGAAUUU (DNA:RNA)
# RNA: B1 RNA with U27A, G28A, G29U
# DNA 1: CAATCTGAATTCCGGTCTCCC
# DNA 2: TGGTGGCTACGACGGGATT
# Target: T1, RBFOX1 RRM
# Test: EMSA; HiTS-Eq, 1 nM pool, 10 min; buffer printed only for the single-RNA assays: 10 mM Tris pH 7.5, 150 mM NaCl, 3.4 mM EDTA, 0.001% NP-40, 30 C
# Conditions: tags: His6 N-terminal (pET28a); label: 5' 32P
# Procedure, shortened: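 These values rest on relative association constants, computed from read-count changes of each RNA species versus the control reaction and normalised to the cognate motif. Reads came from free RNA recovered by 8% native PAGE after purified RbFox RRM (wild type or mutant) at increasing concentrations was equilibrated for 10 min in 50 µL with 1 nM of a 5′-radiolabelled pool with 7 randomized nucleotides and DNA-annealed flanks.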
row,Binder,binding signal
1,B1,0.0187 KA relative to UGCAUGU
2,B2,0.00258 KA relative to UGCAUGU
3,B3,0.0196 KA relative to UGCAUGU
4,B4,0.0171 KA relative to UGCAUGU
5,B5,0.0174 KA relative to UGCAUGU
6,B6,0.0108 KA relative to UGCAUGU
7,B7,0.0124 KA relative to UGCAUGU
8,B8,0.0104 KA relative to UGCAUGU
9,B9,0.00889 KA relative to UGCAUGU

# — paper PMC9911399, “Two distinct binding modes provide the RNA-binding protein RbFox with extraordinary sequence specificity”
